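How tested: cells in 96-well plates exposed to compound for 48 hours at five concentrations. GI50 is the concentration that inhibits growth by half. Definition used: TGI = concentration required for complete inhibition of growth.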
Test system: NCI-H322M lung
Test: NCI anticancer screen, dose series, 48 h

O=C(CSc1nnc(-c2ccc(-c3nc4ccccc4[nH]3)cc2)o1)Nc1ccc(Br)cc1
GI50: 5.01 µM
TGI: 18 µM
